Test results from PubChem BioAssay AID1347428 (National Center for Advancing Translational Sciences (NCATS), 2020).
The campaign covered roughly 91,000 compounds. About 290 (0.32%) were called active. The shares of active, inactive and inconclusive entries below differ from those in the screen. Calls come from the whole dose curve; as a rule, active = well fitted inhibition curve with a large enough effect; inconclusive = small, poorly fitted or top-dose-only effect; inactive = no such curve, though single readings can be large or run the other way. Potencies of inconclusive entries are doubtful fits and often do not repeat.

target: Single-stranded DNA cytosine deaminase (Homo sapiens) (UniProt Q9GZX7); assay: Primary qHTS assay for inhibitors of Activation Induced Cytidine Deaminase (AID): AID signal; conditions: AID deamination FRET fluorescence, UDG-coupled, 4 h; activity change, negative = inhibition: at 115 µM (top of the series); note: nearly all actives have a fitted effect of over 25% in size
% is set by controls: 0 for no effect and ±100 for the full control effect; potency is the fitted concentration of half-maximal effect; tags give direction and shape of the fitted curve.

Sequence of UniProt Q9GZX7 (Q9GZX7 whole entry, looked up): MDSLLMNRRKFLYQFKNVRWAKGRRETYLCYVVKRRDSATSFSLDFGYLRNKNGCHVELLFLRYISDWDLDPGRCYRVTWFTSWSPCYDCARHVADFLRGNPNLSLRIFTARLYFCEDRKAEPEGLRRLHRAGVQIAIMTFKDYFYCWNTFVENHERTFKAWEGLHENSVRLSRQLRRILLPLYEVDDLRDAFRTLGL

Compound	activity change, negative = inhibition	Potency
O=C(Nc1ccccc1Sc1ccccc1)C1CCCC1	inactive: -9.09%	–
CCCOc1ccc(-c2nn(-c3ccccc3)cc2C2NC(=O)NC(C)=C2C(=O)OCC)cc1 (configuration not stated)	–	inconclusive: 56.2 µM [inhibitor, partial curve, poor fit]
O=C(/C(=C\c1ccc(-c2ccccc2Cl)o1)c1nc2ccccc2o1)c1ccccc1	inactive: -17.8%	–
O=C(/C=C/c1ccc(-c2ccccc2)cc1)c1ccccc1	–	inconclusive: 79.4 µM [inhibitor, partial curve, poor fit]
Cc1ccc(S(=O)(=O)N2CCCc3cc(NC(=O)c4ccc(F)c(F)c4)ccc32)cc1	–	inconclusive: 35.5 µM [inhibitor, partial curve, poor fit]
Cc1cccc(NC(=O)C(C#N)C(=O)CC(C)(C)C)c1 (configuration not stated)	inactive: -20.9%	–
Cn1c(=O)c2c(nc(CN(Cc3ccccc3)Cc3ccccc3)n2Cc2ccccc2)n(C)c1=O	–	inconclusive: 39.8 µM [inhibitor, partial curve, poor fit]
COc1cccc(N2CC(NC(=O)C3CCCCC3)CC2=O)c1 (configuration not stated)	–	inconclusive: 3.55 µM [inhibitor, full curve, poor fit]
CNC(=O)c1nn(CN2CCN(Cc3cc(C)ccc3OC)CC2)c(=O)c2ccccc12	inactive: -8.18%	–
CCc1ccc(CNC(=O)C(CC)n2nc(C)c3c(C)n(-c4ccccc4)nc3c2=O)cc1 (configuration not stated)	–	active: 70.8 µM
Cc1ccc(CN(Cc2ccco2)C(=O)c2cccc(C)c2)cc1	–	inconclusive: 39.8 µM [inhibitor, single point]
CCCCN(CC)CCNc1ncnc2onc(-c3ccc(Cl)cc3)c12	–	inconclusive: 79.4 µM [inhibitor, single point]
CC(C)c1ccc(-c2nonc2NC(=O)c2cc(=O)c3ccccc3o2)cc1	–	inconclusive: 89.1 µM [inhibitor, partial curve, poor fit]
N#Cc1c(N2CCN(C(=O)C(=O)N3CCCC3)CC2)nc(-c2ccco2)c2c1CCCC2	inactive: -16.4%	–
COc1ccc2c(c1)c(=O)c(C(=O)c1ccc(C)cc1)cn2Cc1ccccc1F	–	inconclusive: 50.1 µM [inhibitor, partial curve, poor fit]
COC(=O)c1ccc(Cl)cc1NC(=O)Nc1nnc(N(C)Cc2ccccc2)s1	–	inconclusive: 35.5 µM [inhibitor, full curve, poor fit]
COc1ccc(OC)c(-c2noc(N3CCN(c4cc(Cl)ccc4C)CC3)n2)c1	–	inconclusive: 63.1 µM [inhibitor, partial curve, poor fit]
Cc1cc(C)cc(NC(=O)C(=O)NCC(c2cccnc2)N2CCc3ccccc32)c1 (configuration not stated)	–	inconclusive: 25.1 µM [inhibitor, full curve]
Cc1ccc2cc(CCl)c(Cl)nc2c1C	inactive: -14.6%	–
Fc1ccc(F)c(Nc2c3c(nc4ccc(Cl)cc24)CCC3)c1	–	inconclusive: 56.2 µM [inhibitor, partial curve, poor fit]
CCOc1ccc(C2c3c(-c4ccccc4O)n[nH]c3C(=O)N2Cc2cccnc2)cc1OC (configuration not stated)	inactive: -14.3%	–

Compound	activity change, negative = inhibition	Potency
CCOC(=O)C1CCCN(C(=O)c2cc3c(Cl)nc4ccccc4c3s2)C1 (configuration not stated)	–	inconclusive: 50.1 µM [inhibitor, partial curve, poor fit]
Cc1nnc2sc(-c3cccc(NC(=O)C(C)(C)C)c3)nn12	inactive: -0.0067%	–
COc1cc2nc(N3CCCN(C)CC3)nc(NC3CCN(Cc4ccccc4)CC3)c2cc1OC	–	inconclusive: 50.1 µM [inhibitor, partial curve, poor fit]
Cc1c(C(=O)N2CCCCCC2)c(S(=O)(=O)Nc2ccc(OC(F)(F)F)cc2)c(C)n1C	–	inconclusive: 63.1 µM [inhibitor, partial curve, poor fit]
CCOc1ccccc1-c1noc(CSc2nnc(-c3ccncc3)n2-c2ccc(F)cc2)n1	–	inconclusive: 28.2 µM [inhibitor, full curve, poor fit]
CCOc1ccc2c(c1)c(=O)c(S(=O)(=O)c1ccc(CC)cc1)cn2CC	–	inconclusive: 56.2 µM [inhibitor, single point]
COC(=O)c1ccc(C2c3c(-c4ccc(Br)cc4)n[nH]c3C(=O)N2c2ccc(Cl)cc2)cc1 (configuration not stated)	–	inconclusive: 50.1 µM [inhibitor, partial curve, poor fit]
Cc1cc(Nc2ccccc2F)n2nc(Cc3ccc(Cl)cc3)nc2n1	–	inconclusive: 44.7 µM [inhibitor, partial curve, poor fit]
Nc1nccnc1C(=O)NCCc1ccccc1F	inactive: 2.94%	–
C=CCNC(=O)NC(=O)CNc1cc(C(F)(F)F)ccc1NC1CCCCC1	inactive: 0.0822%	–
Cc1ccccc1Cn1c(=O)n(CC2CCC(C(=O)N3CCC(C)CC3)CC2)c(=O)c2sccc21 (configuration not stated)	–	inconclusive: 25.1 µM [inhibitor, full curve, poor fit]
O=C(N1CCN(Cc2ccccc2)CC1)C(F)(F)C(F)(F)C(F)(F)C(F)(F)F	inactive: -3.11%	–
CN(C)CCCc1cc(C(=O)Nc2ccc(-c3ccncc3)cc2)ccc1O	–	inconclusive: 50.1 µM [inhibitor, partial curve, poor fit]
O=C(c1ccccc1Cl)N1CCCC(c2nc3c(nnn3Cc3ccc(F)cc3F)c(=O)[nH]2)C1 (configuration not stated)	–	inconclusive: 44.7 µM [inhibitor, partial curve, poor fit]
CN(C(=O)CSc1nc2ccc(NC(=O)COc3ccc(F)cc3)cc2s1)c1ccccc1	–	inconclusive: 22.4 µM [inhibitor, partial curve, poor fit]
COc1ccc(C(=O)COC(=O)Cc2c(F)cccc2Cl)cc1Br	inactive: 0.583%	–
CCOc1ccc(NC(=O)CC2Nc3cccc4cccc(c34)NC2=O)cc1 (configuration not stated)	–	active: 50.1 µM
Cc1ccc(-n2ncc(C(=O)NCc3ccc4c(c3)OCO4)c2C2CCN(C(=O)OC(C)(C)C)CC2)cc1C	–	inconclusive: 25.1 µM [inhibitor, full curve]
CS(=O)(=O)/C(C#N)=C\c1ccc(-c2ccccc2)cc1	–	inconclusive: 39.8 µM [inhibitor, partial curve, poor fit]
CN1CCN(CCNC(=O)c2cnn(-c3cccc(Cl)c3)c2C2CCN(C(=O)OC(C)(C)C)CC2)CC1	inactive: -10.4%	–
COc1cccc(-c2nn(C)c3sc(C(=O)NCc4ccc(C)cc4)cc23)c1	–	inconclusive: 35.5 µM [inhibitor, full curve, poor fit]

Compound	activity change, negative = inhibition	Potency
CCN(CC)C(=O)c1sc2c(c1C)c(=O)n(-c1ccc(OC)cc1OC)c(=O)n2Cc1cc(C)ccc1C	–	inconclusive: 70.8 µM [inhibitor, partial curve, poor fit]
N#CCc1nc(-c2ccc3c(c2)OCCO3)cs1	inactive: 33%	–
COc1ccc(C(=O)Nc2cc3cc(Cl)ccc3oc2=O)cc1OC	inactive: 5.8%	–
CCCC12CN3CC(C)(CN(C1)C3c1cn(CC)c3ccccc13)C2=O (configuration not stated)	–	inconclusive: 3.55 µM [inhibitor, full curve, poor fit]
COc1ccc(Nc2nc(NCCO)c3nccnc3n2)cc1	inactive: 3.48%	–
COc1cccc(C(=O)NCC(c2ccc(N(C)C)cc2)N2CCc3ccccc32)c1OC (configuration not stated)	–	inconclusive: 20 µM [inhibitor, full curve]
COc1ccc(-c2nc(Cn3c(SCc4cccc(F)c4)nc4cccnc43)c(C)o2)cc1	–	inconclusive: 50.1 µM [inhibitor, partial curve, poor fit]
O=C(Nc1ccc(SC2CCCC2)cc1)c1cccs1	inactive: -15.4%	–
COc1ccc(N2CCN(C(=O)c3cn(C4CCCCC4)c(=O)c4c3c3ccccc3n4C)CC2)cc1	–	inconclusive: 89.1 µM [inhibitor, partial curve, poor fit]
COc1ccc(C)cc1NC(=O)CN1CCCN(S(=O)(=O)c2ccc(Br)cc2)CC1	–	inconclusive: 35.5 µM [inhibitor, single point]
CC(C)[C@H](NC(=O)OCc1ccccc1)C(=O)N[C@H](C=O)Cc1ccccc1	–	inconclusive: 89.1 µM [inhibitor, partial curve, poor fit]
Cc1ccc(N(C)S(=O)(=O)c2ccc(-c3cnc(C4CC4)o3)cc2)cc1	–	inconclusive: 50.1 µM [inhibitor, partial curve, poor fit]
CCn1c(CN2CCCCC2)nc2cc(NC(=O)COc3cc(C)ccc3C(C)C)ccc21	–	inconclusive: 44.7 µM [inhibitor, partial curve, poor fit]
COc1ccc(-n2c(Cc3ccccc3)nnc2SCc2nc(-c3ccccc3C)no2)cc1	–	active: 31.6 µM
CCN(CC)CCNC(=O)c1sc2nc(C)cc(C)c2c1-n1cccc1	–	inconclusive: 22.4 µM [inhibitor, partial curve, poor fit]
Cc1c(C(=O)N(C)c2ccccc2)sc2nc(-c3ccc(F)cc3)cn12	–	inconclusive: 50.1 µM [inhibitor, partial curve, poor fit]
Cc1c2cnn(-c3ccccc3)c(=O)c2c(C)n1CC(=O)N1CCN(c2cccc(Cl)c2)CC1	–	inconclusive: 89.1 µM [inhibitor, single point]
C=C(C)Cn1c(SCc2ccc3ccccc3c2)nc2c1c(=O)[nH]c(=O)n2C	–	inconclusive: 44.7 µM [inhibitor, partial curve]
COc1ccc(CNC(=O)c2cnn(-c3ccc(OC)cc3)c2C2CCN(C(=O)OC(C)(C)C)CC2)cc1	–	inconclusive: 44.7 µM [inhibitor, partial curve, poor fit]
CCN(Cc1ccccc1)C(=O)c1cc2ccc3cccnc3c2[nH]1	–	inconclusive: 50.1 µM [inhibitor, partial curve, poor fit]
